Test results published in PMC4336329 (PLoS ONE, 2015).
The campaign covered roughly 310,000 compounds. About 14,000 (4.5%) showed an effect of 50% or more. Effects have a minus sign here. Some of the results follow.

Target: human ether-à-go-go-related gene (hERG) potassium channel (human, UniProt Q12809)
Test: primary screen, population patch clamp on CHO cells stably expressing hERG
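Note: peak tail current of the secondary pulse compared with the same well before compound.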

human ether-à-go-go-related gene (hERG) potassium channel, sequence (Q12809 whole entry, looked up): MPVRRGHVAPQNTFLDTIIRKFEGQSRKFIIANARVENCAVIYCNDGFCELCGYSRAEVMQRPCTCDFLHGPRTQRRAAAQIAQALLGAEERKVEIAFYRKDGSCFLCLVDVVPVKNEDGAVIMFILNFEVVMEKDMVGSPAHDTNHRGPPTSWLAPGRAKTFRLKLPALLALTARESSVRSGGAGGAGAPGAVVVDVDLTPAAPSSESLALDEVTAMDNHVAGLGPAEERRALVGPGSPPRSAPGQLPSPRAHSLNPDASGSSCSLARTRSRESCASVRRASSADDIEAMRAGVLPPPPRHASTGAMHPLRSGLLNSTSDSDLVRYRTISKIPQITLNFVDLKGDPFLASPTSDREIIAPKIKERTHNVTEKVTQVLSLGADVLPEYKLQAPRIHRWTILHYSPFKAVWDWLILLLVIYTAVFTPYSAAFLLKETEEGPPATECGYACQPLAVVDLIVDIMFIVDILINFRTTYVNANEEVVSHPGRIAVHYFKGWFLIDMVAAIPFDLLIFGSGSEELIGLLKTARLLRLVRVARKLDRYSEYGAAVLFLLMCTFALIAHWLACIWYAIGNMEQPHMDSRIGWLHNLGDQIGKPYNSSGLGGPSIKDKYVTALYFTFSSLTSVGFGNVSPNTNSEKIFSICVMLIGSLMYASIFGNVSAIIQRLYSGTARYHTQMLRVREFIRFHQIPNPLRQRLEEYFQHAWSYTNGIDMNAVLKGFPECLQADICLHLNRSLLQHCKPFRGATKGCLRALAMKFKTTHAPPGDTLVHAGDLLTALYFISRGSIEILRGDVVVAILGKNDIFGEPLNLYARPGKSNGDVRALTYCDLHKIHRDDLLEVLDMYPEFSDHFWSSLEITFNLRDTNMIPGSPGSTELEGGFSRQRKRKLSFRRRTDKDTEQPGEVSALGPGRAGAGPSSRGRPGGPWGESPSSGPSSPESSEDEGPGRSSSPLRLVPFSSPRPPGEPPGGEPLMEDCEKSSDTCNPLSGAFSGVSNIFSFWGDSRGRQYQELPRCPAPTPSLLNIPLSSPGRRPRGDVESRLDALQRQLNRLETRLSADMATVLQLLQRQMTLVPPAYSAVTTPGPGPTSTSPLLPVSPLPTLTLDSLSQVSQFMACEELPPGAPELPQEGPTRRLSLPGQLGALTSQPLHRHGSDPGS

SMILES | hERG current change (%, negative = inhibition) at 10uM
O=C(NCc1cccnc1)[C@@H]1CC=C[C@@H]2CCN(Cc3ccccc3)C(=O)[C@@H]21 | 3.16%
CC(C)C(C)NC(=O)COc1ccc(S(=O)(=O)N2CCOCC2)cc1[N+](=O)[O-] (stereo not drawn) | 12.6%
CC(C)(C)NC(=O)CN(C(=O)c1ccc(CN2CCOCC2)o1)c1ccc2c(c1)OCCO2 | 13.8%
CCCCn1c(=O)c(C(=O)NCc2ccc(Cl)cc2)c(O)c2ccccc21 | 18.8%
CCn1c(COc2ccc(OC)cc2)nnc1SCC(=O)Nc1cc(OC)ccc1OC | -28.4%
COC(=O)c1cc(CNC(=O)c2ccc(O)c(Cl)c2)ccc1OC | -17.8%
NC(=O)CC(NSc1ccccc1[N+](=O)[O-])C(=O)O (stereo not drawn) | -5.96%
Cc1cc(OCC(=O)Nc2ccc(N3CCN(C)CC3)cc2)ccc1Cl | -43.4%
Cl.O=C(NCCCn1ccnc1)c1ccc(Br)cc1 | -26.7%
NC(=O)N/N=C/c1ccc(N2CCOCC2)s1 | -4.84%
CCc1ccc2[nH]c(=O)c(C(c3nnnn3CC3CCCO3)N3CCCc4ccccc43)cc2c1 (stereo not drawn) | 19.8%
CCOC(=O)C1CCN(C(=O)/C(=C/c2ccccc2)NC(=O)c2ccccc2)CC1 | -30%
O=C(NCc1ccccn1)c1nc(Cn2ccc([N+](=O)[O-])n2)no1 | 9.36%
CC(C)n1cc(CN2CCC(n3nccc3NC(=O)CCCc3ccccc3)CC2)cn1 | -26%
Cc1cc(C(=O)O)ccc1NCc1ccncc1 | 18.4%
O=C(CN(Cc1cccs1)C(=O)CCC(=O)Nc1ccccn1)NCc1ccccc1 | -19.9%
CCOc1ccc(NC(=O)C2CCCN(S(=O)(=O)c3c(C)noc3C)C2)cc1 (stereo not drawn) | 10.8%
COc1ccc(C(=O)c2c3ccc(OC)cc3[n+]([O-])n2CCCC(N)=O)cc1 | -34.9%
CCOCCCNC(=O)c1ccc2c(=O)n(Cc3ccc(OC)cc3)c(=O)[nH]c2c1 | 29.8%
C=CCn1c(SCc2cc(=O)n3cc(C)ccc3n2)nnc1-c1ccc(F)cc1 | -45.1%
CCCCCCCCC1CC(C(=O)Nc2ccccc2)C(=O)O1 (stereo not drawn) | 6.07%
Cn1c(=O)c2cc(S(=O)(=O)NC(C(=O)NCc3ccccn3)c3ccccc3)ccc2n(C)c1=O (stereo not drawn) | 8.31%

SMILES | hERG current change (%, negative = inhibition) at 10uM
NC(=O)CSc1nc2ccccc2c(=O)n1Cc1ccccc1 | -7.52%
CCS(=O)(=O)N1CCCC(C(=O)N2CCC3(CC2)OCCO3)C1 (stereo not drawn) | 7.18%
CSC(=S)N(C)C1CCS(=O)(=O)C1 (stereo not drawn) | 5.99%
Cn1c(=O)c(C(=O)c2ccccc2)c(O)c2ccccc21 | 12.8%
O=C(Nc1ccccc1)c1ccc(-c2ccccc2)s1 | 74.9%
COc1cccc(C2(O)C(=O)Nc3ccccc32)c1 (stereo not drawn) | 10.5%
CCOc1ccccc1N1CCN(C(=O)c2cc3c(C)cc(C)cc3[nH]2)CC1 | -4.74%
O=C(c1ccc([N+](=O)[O-])o1)N1CCN(c2nc3c(F)cc(F)cc3s2)CC1 | -54.7%
COc1ccc(S(=O)(=O)N(C)CC(=O)N2CCOCC2)cc1Cl | 10.2%
COc1ccc(C(C(=O)NCC2CCCO2)N(C(=O)CNC(=O)c2cccs2)c2ccccc2C)cc1OC (stereo not drawn) | -1.91%
O=C(C1=C(O)C(=O)N(CCN2CCOCC2)C1c1ccco1)c1cc2ccccc2o1 (stereo not drawn) | -3.97%
CCOC(=O)c1cc(C#N)c(SC(C)C(=O)NC2CCCCC2)nc1C (stereo not drawn) | 12.8%
CCCOc1ccc(C2C(C(=O)c3ccco3)=C(O)C(=O)N2CCN2CCOCC2)cc1OC (stereo not drawn) | 18.5%
CC(=O)Oc1cc(OC(C)=O)c2c(C)cc(=O)oc2c1 | 14.6%
Cc1ccc(CS(=O)(=O)CCC(=O)N2CCC3(CC2)OCCO3)cc1 | -2.79%
C=CCSc1nnc(-c2cnn(-c3ccccc3)c2-n2cccc2)n1C | -22%
CCCCOc1ccc(S(=O)(=O)Nc2ccc(NC(C)=O)cc2)cc1 | -13.7%
CCc1ccc[n+](-c2[nH]c(=O)sc2/C=N/NC([S-])=Nc2ccccc2)c1 | 5.39%
Cc1cc(C(=O)Nc2cccnc2)cs1 | 0.642%
O=C(NNc1ccccn1)c1ccccc1CC[N+](=O)[O-] | 13.3%
CCCNc1ccc(S(=O)(=O)N(C(C)C)C(C)C)cn1 | -22.2%
CC(=O)Nc1sc2c(c1C(c1cccs1)N1CCOCC1)CCCC2 (stereo not drawn) | 11.5%

SMILES | hERG current change (%, negative = inhibition) at 10uM
COc1ccc(C(=O)NNC(=O)CSc2nnc(COc3ccc4ccccc4c3)n2C)cc1 | 5.45%
CCN(CC)S(=O)(=O)c1cccc(C(=O)Nc2ccc3c(c2)OCO3)c1 | -23.2%
Cc1ccc(CNc2cc(C(=O)O)ccc2C)s1 | 19.2%
O=C(CCC(=O)OCC(=O)c1ccc(Br)cc1)NC1CCCCC1 | -4.23%
COCCCn1c(=O)/c(=C\c2ccccc2OC(F)F)s/c1=C(/C#N)C(=O)NCCOC | -11.5%
COCCCn1c(SCC(=O)NC2CCCCC2)nnc1-c1ccncc1 | 19.8%
O=C(NCc1ccccc1)c1cccc(F)c1F | 17.3%
O=C(CN1C(=O)NC2(CCc3ccccc3C2)C1=O)Nc1ccc(Cl)cc1F (stereo not drawn) | 6.79%
COc1cc(C(=O)NCc2ccc(F)cc2)cc(Cl)c1OC | 17%
CCOc1ccc(C2SCC(=O)Nc3c2c(C)nn3C2CCOC(C)(C)C2)cc1 (stereo not drawn) | 6.41%
CC[N+]1=CN(c2ccccc2)C(C)=CC1(C)C.[I-] | 12.3%
O=C(Nc1ccc(N2C(=O)C3C4C=CC(C4)C3C2=O)cc1)Nc1nncs1 (stereo not drawn) | -7.52%
O=C(O)/C(=C1\OC(=O)c2ccccc21)c1ccccc1 | -3.5%
Cc1nonc1CN(C)C(=O)CC1C(=O)NCCN1Cc1cccc(C(F)(F)F)c1 (stereo not drawn) | 1.99%
O=C(CNc1ccc2ccccc2c1)NNC1=NCCC1 | 12%
Cc1c(C(=O)O)cccc1N1C(=O)Nc2ccccc2N1O | 46.2%
COc1ccc(-c2nc3n(c2C)Cc2ccccc2-3)cc1 | -19.1%
CC1=C(C(=O)O)N2C(=O)C(NC(=O)c3nn(C)cc3Cl)C2SC1 (stereo not drawn) | 12.3%
CC(=O)N1CCc2cc(S(=O)(=O)CCC(=O)NCCc3ccc(Cl)cc3)ccc21 | -7.04%
CC(C)[C@H](NC(=O)C1CCN(S(=O)(=O)c2ccccc2)CC1)C(=O)NCc1ccco1 | 13.8%
Cc1[nH]c2ccccc2c1C(=O)/C=C/c1ccccc1 | 8.96%
Cc1ccc(-c2nnc(Nc3ccc4c(c3)nc(C)n4C)c3ccccc23)cc1 | 5.03%

SMILES | hERG current change (%, negative = inhibition) at 10uM
COc1ccc(NC(=O)CCCSc2ccccc2)cc1S(N)(=O)=O | -6.03%
Cc1nn(CC2CC2)c(=O)n1-c1ccc(F)cc1 | 13.4%
CSc1nc2c(c(=O)[nH]c(=O)n2C)n1Cc1ccccc1Cl | 3.4%
COC(=O)c1ccc(CNC(=O)COC(=O)C2CC3C=CC2C3)cc1 (stereo not drawn) | 11.2%
CNC(=O)c1ccccc1-c1cn(C)c2ccccc2c1=O | 26.3%
COc1ccccc1C(=O)Nc1nc(-c2cccs2)c(NC(C)=O)s1 | -7.05%
Brc1nc(Br)n(Cc2ccccc2)n1 | 28.4%
Cc1ccc(C)c(C(=O)COC(=O)C2CCN(c3ccc(C(F)(F)F)cn3)CC2)c1 | -3.15%
CCOc1cccc(C(=O)NC(=S)Nc2ccc3c(c2)OCCO3)c1 | 7.57%
CCC1=C2CC[C@H]3C(=O)N(CC)C(=O)[C@H]3[C@H]2[C@@]2(Cc3ccccc3)C(=NCCOC)OC(=O)N2C1=O | 10%
COc1ccc(C(c2nnnn2C2CCCC2)N2CCC(C)CC2)cc1.Cl (stereo not drawn) | -9.25%
O=C(Cc1cccs1)N1CCN(S(=O)(=O)c2cc(Cl)ccc2Cl)CC1 | -48.4%
CCOC(=O)N1CCN(C(=O)CSCC(=O)Nc2nc(-c3ccc(-c4ccccc4)cc3)cs2)CC1 | -11.9%
Cc1n[nH]c(=O)c2c(NC(=O)CSc3nnc(-c4ccco4)n3C)oc(C)c12 | 4.76%
COc1cccc(OCCCN2CCCCCC2)c1.O=C(O)C(=O)O | -37.8%
O=C(COc1cccc2c1CCNC2=O)NC1CCCCC1 | -13.7%
COc1ccc(Cc2nc(C(=O)NCc3ccccc3OC)cs2)cc1 | -5.16%
O=c1[nH]ncc(N/N=C\c2cccs2)c1Cl | 4.14%
CN(C)C(CNC(C(=O)Nc1ccc([N+](=O)[O-])cc1Br)c1ccccc1)c1ccccc1 (stereo not drawn) | -66.5%
CC1(C)CC(=O)C2=C(C1)Nc1ncnn1C2c1cccs1 (stereo not drawn) | -1.14%
O=C(NCC(c1ccco1)N1CCc2ccccc2C1)c1ccc(Cl)c([N+](=O)[O-])c1 (stereo not drawn) | -55.5%
